# Results as given in the supplement of paper PMC10441789.
# This is one part of the list. Antibody binding of pooled human sera (four to six donors per pool; dilution not stated) to peptides of the Trypanosoma cruzi antigen TSSA on microarrays. Quantile-normalised fluorescence in arbitrary units, mean of duplicate arrays; higher = more binding. No active / inactive call. The uninfected pools are read here as the healthy donors of the same country. The strongest signals lie near the top of the scale (about 60,000).
# Experiments:
# Assay in all cases: antibody binding signal (normalised fluorescence) (arbitrary fluorescence units); higher = stronger serum antibody binding to peptide
# [1] = system: pooled sera of chronic Chagas disease patients, Argentina
# Procedure: (§1)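 Microarray of 15-residue peptides over residues 30-55 of Trypanosoma cruzi TSSAII, each with 1 to 10 substitutions at naturally variable positions, probed with one serum pool per country.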
# [2] = system: pooled sera of chronic Chagas disease patients, Bolivia
# Procedure: as §1
# [3] = system: pooled sera of chronic Chagas disease patients, Brazil
# Procedure: as §1
# [4] = system: pooled sera of chronic Chagas disease patients, Colombia
# Procedure: as §1
# [5] = system: pooled sera of chronic Chagas disease patients, Mexico
# Procedure: as §1
# [6] = system: pooled sera of chronic Chagas disease patients, USA
# Procedure: as §1
# [7] = system: pooled sera of uninfected people, Argentina
# Procedure: as §1
# [8] = system: pooled sera of uninfected people, Bolivia
# Procedure: as §1
# [9] = system: pooled sera of uninfected people, Brazil
# Procedure: as §1
# [10] = system: pooled sera of uninfected people, Colombia
# Procedure: as §1
# [11] = system: pooled sera of uninfected people, Mexico
# Procedure: as §1
# [12] = system: pooled sera of uninfected people, USA
# Procedure: as §1
Sequence,antibody binding signal [1],antibody binding signal [2],antibody binding signal [3],antibody binding signal [4],antibody binding signal [5],antibody binding signal [6],antibody binding signal [7],antibody binding signal [8],antibody binding signal [9],antibody binding signal [10],antibody binding signal [11],antibody binding signal [12]
KAATGETPSPPGASS,1640,930,16700,182,152,7610,202,253,279,161,103,513
GTDKKAAAGEAPSPS,251,298,4080,1600,449,10300,182,228,97.7,101,196,111
GKDNKPATGETPSPP,39700,22200,35300,3600,6520,27700,345,782,223,282,1840,546
GKEKKAATGETPSPS,7450,798,4130,6120,7270,10600,254,101,83.6,212,95.6,921
TDKKTATGGAPSPPG,1180,302,880,4120,564,1130,318,198,137,113,196,180
KKAAAGEAPSQPGAS,1910,22800,30400,1340,178,7890,232,348,137,139,85,216
GTDKKTATGGTPSPP,508,724,423,4820,532,1510,278,180,187,524,178,124
PPSGKDNKTATGEAP,15000,24600,12400,1180,7260,20900,414,490,442,416,151,246
KDNKPATGGAPSPPG,545,2240,2750,362,255,2030,546,852,152,159,212,140
GKEKKTATGGAPSPS,3190,223,551,2850,1990,2070,238,126,118,85.4,140,98
PPSGKENKAAAGGTP,6640,1210,3930,2690,4100,4260,3030,1320,567,582,159,239
TEKKPAAGEAPSQPG,9780,21800,41600,380,351,15200,98.6,152,297,95.2,168,636
KPATGEAPSQSGASS,50500,47900,50000,146,290,33900,1080,706,265,198,267,229
KDNKPAAGEAPSQPG,7640,10900,37100,313,196,16000,332,434,146,190,319,77.3
KDKKTATGGAPSPPG,441,215,217,1060,247,499,212,93.7,105,77,98,127
STPPSGTDKKTATGE,32800,30300,31900,5880,40500,6340,556,145,461,229,1090,108
DKKPAAGEAPSPPGA,832,215,18500,212,256,15900,136,186,200,121,96.6,107
GKEKKPATGEAPSPS,42000,13000,36400,3050,5850,27500,735,275,149,148,102,253
DKKPAAGGAPSQSGA,508,216,340,3950,288,474,193,149,255,124,90.8,179
DKKTATGGAPSPPGA,1130,565,1310,3410,1270,1240,340,176,110,116,283,148
